Measured values: US8735609B2, “Bryostatin analogues, synthetic methods and uses” (The Board of Trustees of the Leland Stanford Junior …, priority 2007, dated 2014)

Test system: NCI-H322M
Assay: cells
From the text: Another useful method for assessing anticancer activities of compounds of the invention involves the multiple-human cancer cell line screening assays run by the National Cancer Institute. This screening panel, which involves approximately 60 different human cancer cell lines, is a useful indicator of in vivo antitumor activity for a broad variety of tumor types, such as leukemia, non-small cell lung, colon, central nervous system (CNS), melanoma, ovarian, renal, prostate, and breast cancers. Antitumor activities can be expressed in terms of ED50 (or GI50), where ED50 is the molar concentration of compound effective to reduce cell growth by 50%. Compounds with lower ED50 values tend to have greater anticancer activities than compounds with higher ED50 values. Example 7 describes a P388 murine lymphocytic leukemia cell assay which measures the ability of compounds of the invention to inhibit cellular growth.
Anticancer data were obtained in vitro for C26 desmethyl bryostatin analogue 702.1 (Example 3A) tested against a spectrum of different NCI human cancer cell-lines associated with various cancer conditions. Data obtained with Bryostatin-1 are included for comparison. Growth inhibition (GI50) values are expressed as the log of molar concentration at half-maximum inhibition.

SMILES | Growth inhibition (GI50) (NSC Lung) | GI50 (Homo sapiens, read-out: Growth inhibition (GI50) (converted))
CCC/C=C/C=C/C(=O)O[C@H]1/C(=C/C(=O)OC)C[C@H]2C[C@H]([C@@H](C)O)OC(=O)C[C@H](O)C[C@@H]3C[C@H](OC(C)=O)C(C)(C)[C@](O)(C[C@@H]4C/C(=C/C(=O)OC)C[C@H](/C=C/C(C)(C)[C@]1(O)O2)O4)O3 [Bryo-1, Bryostatin-1, reference compound] | −6.00 log of molar concentration | –
CCCCCCCC(=O)O[C@H]1/C(=C/C(=O)OC)C[C@H]2C[C@H](CO)OC(=O)C[C@H](O)C[C@@H]3CCC[C@H](C[C@@H]4CCO[C@H](/C=C/C(C)(C)[C@]1(O)O2)O4)O3 [Formula IIa (702.1)] | – | 41.7 µM
